{"source": "PubChem BioAssay AID504832", "about": "(National Center for Advancing Translational Sciences (NCATS), 2011)", "note": "The campaign covered roughly 310,000 compounds. About 18,000 (5.8%) were called active. Inconclusive results, whose numbers are uncertain, are shown with a selection of clear calls. Calls come from the whole dose curve; as a rule, active = well fitted inhibition curve with a large enough effect; inconclusive = small, poorly fitted or top-dose-only effect, or another doubt; inactive = no such curve, though single readings can be large or run the other way. No potency is given beside an inconclusive call; the fits are too rough."}
{"assay": "Primary qHTS for delayed death inhibitors of the malarial parasite plastid, 48 hour incubation; note: potency is the fitted concentration of half-maximal effect; tags give direction and shape of the fitted curve", "settings": "P. falciparum luciferase growth in erythrocytes; series mostly up to 28.7 µM", "how_it_was_run": "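Growth was read as firefly luciferase luminescence after a 48 h, 37 C, 5% CO2 exposure of compounds to reporter-bearing P. falciparum cultures (0.1% parasitemia, 2% hematocrit final) in Albumax-supplemented RPMI 1640.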"}
{"compound": "CCc1ccc(NC(=O)C2CCC(CNC(=O)[C@@H]3Cc4ccccc4CN3)CC2)cc1", "note": "(stereo not given in full)", "Potency": "inconclusive [inhibitor, partial curve]"}
{"compound": "O=C(CNc1ccc2ccccc2c1)N/N=C/C=C/c1cccc([N+](=O)[O-])c1", "Potency": "inactive"}
{"compound": "O=S(=O)(NNc1ccc(F)cc1F)c1cccc(Cl)c1", "Potency": "inconclusive [inhibitor, single point]"}
{"compound": "C/C(=N\\NC(=O)CCn1nnc2ccccc21)c1ccco1", "Potency": "inactive"}
{"compound": "CCCC1(c2ccccc2)NC(=O)N(CC(=O)NCc2ccc(C)cc2)C1=O", "note": "(stereo not given)", "Potency": "inconclusive [inhibitor, partial curve]"}
{"compound": "CCCCNC(=O)C(C#N)c1nc2ccccc2nc1N1CCN(c2ccccc2F)CC1", "note": "(stereo not given)", "Potency": "inconclusive [inhibitor, full curve, poor fit]"}
{"compound": "CCNc1ccc(S(N)(=O)=O)cc1[N+](=O)[O-]", "Potency": "inactive"}
{"compound": "Cc1nc2ccc(C(=O)N3CCSCC3)cc2s1", "Potency": "inconclusive [inhibitor, single point]"}
{"compound": "CCOc1ccccc1NC(=O)c1cc(C(=O)Nc2ccccc2OCC)cc(N2C(=O)CCC2=O)c1", "Potency": "inactive"}
{"compound": "Cc1ccc(C(c2nnnn2CC2CCCO2)N2CCN(c3cccc(C)c3C)CC2)cc1", "note": "(stereo not given)", "Potency": "active: 13.1 µM"}
{"compound": "NS(=O)(=O)c1cccc(NC(=O)COC(=O)C2(c3cccc(F)c3)CCCC2)c1", "Potency": "inactive"}
{"compound": "Cc1ccc(O)c(C(=O)c2cnc3c(c2)c(C)nn3C)c1", "Potency": "inconclusive [inhibitor, single point]"}
{"compound": "COc1ccc(C(C[N+](=O)[O-])c2c(-c3ccccc3)cc3ccccn23)c(OC)c1", "note": "(stereo not given)", "Potency": "active: 10.4 µM"}
{"compound": "O=C(OCCN1C(=O)c2cccc3c(N4CCOCC4)ccc(c23)C1=O)c1ccccc1Cl", "Potency": "inconclusive [inhibitor, partial curve, poor fit]"}
{"compound": "CN(C)c1cc(N/N=C/c2ccc(Cl)cc2)nc(N(C)C)n1", "Potency": "inconclusive [inhibitor, full curve, poor fit]"}
{"compound": "O=C(Nc1ccc(-c2csc(-c3ccccc3)n2)cc1)c1ccccc1", "Potency": "inconclusive [inhibitor, partial curve, poor fit]"}
{"compound": "COCCN1CCC(CNCc2cn[nH]c2-c2ccc(C)c(C)c2)C1", "note": "(stereo not given)", "Potency": "inconclusive [inhibitor, single point]"}
{"compound": "O=C1c2ccccc2C(Nc2ccc(S(=O)(=O)N3CCCCC3)cc2)N1c1ccccn1", "note": "(stereo not given)", "Potency": "inconclusive [inhibitor, partial curve, poor fit]"}
{"compound": "CCOc1ccc(N(CC(=O)NCCC2=CCCCC2)S(=O)(=O)c2ccccc2)cc1", "Potency": "inconclusive [inhibitor, single point]"}
{"compound": "CCOC(=O)C1=C(C)N=C2SC(C)C(=O)N2C1c1ccccc1", "note": "(stereo not given)", "Potency": "inconclusive [inhibitor, partial curve, poor fit]"}
{"compound": "Cc1c(Cl)cccc1NC(=S)Nc1ccccn1", "Potency": "inactive"}
{"compound": "CCC(=O)Nc1ccc(NC(=O)c2cccc3ccccc23)cc1", "Potency": "inactive"}
{"compound": "CC1(C)CCc2nc(SCc3ccccc3)c(C#N)cc2C1", "Potency": "active: 5.22 µM"}
{"compound": "CCN(Cc1ccccc1)C(=O)COC(=O)c1c(C)nsc1NC", "Potency": "inconclusive [inhibitor, single point]"}
{"compound": "CC(C)(CCO)NC(=S)NC1CC2C=CC1C2", "note": "(stereo not given)", "Potency": "inconclusive [inhibitor, full curve, poor fit]"}
{"compound": "Cn1nnnc1SCC(=O)Nc1ccc(Oc2ccc(Cl)cc2)cc1", "Potency": "inactive"}
{"compound": "COC(=O)c1ccc(NC(=O)C(=O)c2cccn2C)cc1", "Potency": "inactive"}
{"compound": "Cc1cc(C)cc(OCC(=O)Nc2ccc(F)cc2)c1", "Potency": "inconclusive [inhibitor, single point]"}
{"compound": "Cc1ccc2c(c1)nnn2C1CCN(S(=O)(=O)c2ccc3ccccc3c2)CC1", "Potency": "active: 10.4 µM"}
{"compound": "Cc1[nH]c2ccccc2c1SCc1nnc(SCc2ccccc2)n1C", "Potency": "inconclusive [inhibitor, single point]"}
{"compound": "CC(C)CNC(=O)C(=O)Nc1ccc2c(c1)N(S(=O)(=O)c1cccs1)CCC2", "Potency": "inconclusive [inhibitor, partial curve]"}
{"compound": "COc1ccccc1NC(=O)c1ccc(S(=O)(=O)N(C)C)cc1", "Potency": "inactive"}
{"compound": "CC1CCN(C(=O)c2ccc(CSc3ccc(Cl)cc3)cc2)CC1", "Potency": "inconclusive [inhibitor, partial curve, poor fit]"}
{"compound": "CC(C)CNC(C(=O)Nc1ccc([N+](=O)[O-])cc1Br)c1ccccc1", "note": "(stereo not given)", "Potency": "inconclusive [inhibitor, single point]"}
{"compound": "C=C(C)[C@@H]1C2C(=O)O[C@H]1[C@H]1OC(=O)[C@@]34OC3C[C@]2(O)[C@@]14C", "note": "(stereo not given in full)", "Potency": "inconclusive [inhibitor, partial curve, poor fit]"}
{"compound": "Cc1ccc(S(=O)(=O)NCC(=O)OCC(=O)N(C)C2CCCCC2)cc1", "Potency": "inactive"}
{"compound": "Cc1cccc(-n2ncc3c(N4CCC5(CC4)OCCO5)ncnc32)c1", "Potency": "inactive"}
{"compound": "O=C(NC(C(=O)c1ccccc1)n1c(=O)cc[nH]c1=S)c1ccccc1", "note": "(stereo not given)", "Potency": "inactive"}
{"compound": "CCOP(=O)(C1=C(O)C(=O)C(C(C)(C)C)=CC1=O)c1ccccc1", "note": "(stereo not given)", "Potency": "inconclusive [inhibitor, partial curve, poor fit]"}
{"compound": "CN(C)c1nc(NCc2ccccc2)nc(N/N=C/c2cccc(Br)c2)n1", "Potency": "inconclusive [inhibitor, full curve, poor fit]"}
{"compound": "c1ccc(-c2nc(NCc3cccnc3)c3oc4ccccc4c3n2)cc1", "Potency": "inconclusive [inhibitor, single point]"}
{"compound": "COCCNC(=O)NC(=O)CN1CCCc2ccccc21", "Potency": "inconclusive [inhibitor, full curve, poor fit]"}
{"compound": "Cc1onc(-c2ccccc2)c1C(=O)Nc1ccc2c(c1)OCO2", "Potency": "inconclusive [inhibitor, single point]"}
{"compound": "Clc1ccc(OCCN2CCOCC2)cc1", "Potency": "inconclusive [inhibitor, full curve, poor fit]"}
{"compound": "COC(=O)c1ccc(NC(=S)NCCc2ccccc2)cc1", "Potency": "inactive"}
